# Laboratory results reported in PubChem BioAssay AID588453 (National Center for Advancing Translational Sciences (NCATS), 2011).
# Screen size: about 390,000 compounds; about 4,000 (1%) were called active. Inconclusive means that the source gave no clear call. Such entries were picked first, then a sample of the others. Calls come from the whole dose curve; as a rule, active = well fitted inhibition curve with a large enough effect; inconclusive = small, poorly fitted or top-dose-only effect; inactive = no such curve, though single readings can be large or run the other way. Potencies of inconclusive entries are doubtful fits and often do not repeat.
# Biological target: Thioredoxin reductase 1, cytoplasmic (Rattus norvegicus) (UniProt O89049)
# Experiment: qHTS Assay for Inhibitors of Mammalian Selenoprotein Thioredoxin Reductase 1 (TrxR1): qHTS; note: nearly all actives have a fitted effect of over 65% in size
# Conditions: recombinant rTrxR1, NADPH fluorescence consumption, selenite substrate; series mostly up to 114 µM; activity change, negative = inhibition: at the top concentration
# Procedure, shortened: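 Rat TrxR1 (90 nM in the dispensed reagent) was pre-reduced with 400 uM NADPH for 5 min at room temperature, then incubated with compound for 15 min. After 400 uM selenite was added, NADPH fluorescence (Ex 340/Em 450 nm) was followed for 8 min.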
# % is set by controls: 0 for no effect and ±100 for the full control effect; potency is the fitted concentration of half-maximal effect; tags give direction and shape of the fitted curve.
# Chain of UniProt O89049 (O89049 whole entry, looked up): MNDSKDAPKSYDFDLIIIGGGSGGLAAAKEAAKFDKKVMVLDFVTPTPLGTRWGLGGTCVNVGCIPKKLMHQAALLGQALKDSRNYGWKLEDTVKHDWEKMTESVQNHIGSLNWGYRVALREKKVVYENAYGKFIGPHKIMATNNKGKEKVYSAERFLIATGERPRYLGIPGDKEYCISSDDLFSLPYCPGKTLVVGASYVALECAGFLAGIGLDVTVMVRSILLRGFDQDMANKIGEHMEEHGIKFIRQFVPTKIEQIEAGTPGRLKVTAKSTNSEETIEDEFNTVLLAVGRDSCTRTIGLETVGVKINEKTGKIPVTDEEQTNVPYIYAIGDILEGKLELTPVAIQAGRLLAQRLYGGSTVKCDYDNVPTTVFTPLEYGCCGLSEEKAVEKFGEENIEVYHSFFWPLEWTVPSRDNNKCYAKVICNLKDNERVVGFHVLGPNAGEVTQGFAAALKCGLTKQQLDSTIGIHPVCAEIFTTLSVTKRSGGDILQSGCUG
SMILES,"activity change, negative = inhibition",Potency
Cc1cc(=O)oc2cc(OCC(=O)N3CCN(c4ccccc4)CC3)c(Cl)cc12,inactive: 16.9%,
O=C(NCCc1ccccc1)c1noc2c1CCc1ccccc1-2,,"inconclusive: 2.24 µM [inhibitor, partial curve, poor fit]"
CC(C)CCNC(=O)c1ccc(CS(=O)(=O)Cc2ccccc2F)o1,,"inconclusive: 50.1 µM [inhibitor, partial curve, poor fit]"
Cc1ccc(C(=O)Nc2ncc(C)s2)s1,inactive: 5.28%,
Cc1cc(NC(=O)C2CCN(S(=O)(=O)c3cccs3)CC2)no1,inactive: 22.9% [at 57.1 µM],
COC(=O)c1ccc(N/C(C)=C/C(=O)c2ccc(C)o2)cc1,,"inconclusive: 79.4 µM [inhibitor, single point]"
COC(Cn1c2c(c3cc(C)ccc31)CCCC2NCc1ccccc1)OC (stereo not drawn),,"inconclusive: 79.4 µM [inhibitor, single point]"
COc1ccc2ccc3cccc[n+]3c2c1,inactive: -30.6%,
CCCCC(=O)Nc1ccc(C)c(S(=O)(=O)N2CCCCCC2)c1,inactive: 3.15%,
CCOC1(OCC)N=C(N)C2(C#N)C(c3ccc(NC(C)=O)cc3)C12C#N (stereo not drawn),,"inconclusive: 70.8 µM [inhibitor, single point]"
CCN(CC)C(=O)c1ccc2c(c1)N(Cc1ccccc1F)C(=O)c1ccccc1S2=O (stereo not drawn),inactive: 17.9%,
COc1ccc2c(C(=O)NCCCCO)c(-c3ccc(S(C)(=O)=O)cc3)sc2c1,,"inconclusive: 89.1 µM [inhibitor, single point]"
Cc1c(C(=O)NCc2cccc(F)c2)oc2c1-c1[nH]ncc1CC2,inactive: 0.828%,
CCOC(=O)c1ccc(NC(=S)NNC(=O)c2cc(-c3cccnc3)nc3ccccc23)cc1,,"inconclusive: 39.8 µM [inhibitor, partial curve]"
CS(=O)(=O)Nc1ccc(-c2nc3ccccc3s2)cc1,,active: 79.4 µM
COc1ccc2[nH]c3c4c(ccc3c2c1)C(=O)C=CC4=O,,active: 50.1 µM
CCOc1ccccc1NC(=O)CSc1ccc(-c2ccco2)nn1,,active: 35.5 µM
Clc1ccc(C2[C@H]3CN(Cc4ccc(-c5ccccc5)cc4)[C@H](c4ccccc4)C34CC2(c2ccccc2)C4)cn1 (stereo partly drawn),,"inconclusive: 89.1 µM [inhibitor, single point]"
Cc1ccc(NC(=S)NC(NC(=O)N(C)C)C(Cl)(Cl)Cl)cc1 (stereo not drawn),,"inconclusive: 11.2 µM [inhibitor, full curve, poor fit]"
Cc1ccc(S(=O)(=O)c2nc(-c3cccs3)oc2SCc2ccc(F)cc2)cc1,inactive: 8.4%,
Cc1ccccc1Cn1c(=O)n(Cc2ccco2)c(=O)c2sc3ccccc3c21,,"inconclusive: 14.1 µM [inhibitor, partial curve]"
CCOc1ccc(CCNC(=O)C2Cc3ccccc3N2C(=O)CC)cc1 (stereo not drawn),inactive: 22.1% [at 57.1 µM],
Cc1cccc(COCC(Cc2ccccc2)N2CCN(C(=O)c3cccc(Cl)c3)CCC2=O)c1 (stereo not drawn),inactive: 18.1%,
O=C(CNC(=O)C1CCCCC1)OCCOc1ccccc1,,"inconclusive: 89.1 µM [inhibitor, single point]"
COc1ccc(CN2CCNC(=O)C2CC(=O)N(C)C2CCOCC2)c(F)c1 (stereo not drawn),,"inconclusive: 79.4 µM [inhibitor, single point]"

SMILES,"activity change, negative = inhibition",Potency
S=c1[nH]c(-c2ccccc2)cn1/N=C/c1ccncc1,inactive: -20.8%,
CCOC(=O)c1cc(-c2ccco2)nc2c1c(C)nn2-c1ccccc1,,"inconclusive: 44.7 µM [inhibitor, partial curve, poor fit]"
CNC(=O)NC(=O)COC(=O)CCCSc1nc2ccccc2s1,inactive: -14.6%,
CCCCNC(=O)N(O)C1N(/N=C/c2ccco2)C(=S)SC1(C)C (stereo not drawn),,"inconclusive: 70.8 µM [inhibitor, partial curve]"
COc1ccc(/C=N/NC(=O)c2cccnc2)cc1CN1CCCc2ccccc21,inactive: 37.4% [at 57.1 µM],
Cn1c(CNC(=O)c2ccco2)nnc1SCC(=O)N1c2ccccc2Sc2ccccc21,inactive: 7.85%,
CCOc1cc(/C=N/NC(=O)c2cc3c(ccc4ccccc43)o2)ccc1O,,"inconclusive: 31.6 µM [inhibitor, single point]"
NC(=O)c1c(NC(=O)CCCn2cnc([N+](=O)[O-])n2)sc2c1CCCC2,inactive: -17.4%,
Cc1nn(Cc2ccc(Cl)c(Cl)c2)c(C)c1NC(=O)c1cc(-c2ccc3c(c2)OCO3)on1,inactive: 10.3%,
CC1(C(=O)NC2CCCCCCC2)CCC(=O)N1CCN1CCOCC1 (stereo not drawn),,"inconclusive: 20 µM [inhibitor, partial curve, poor fit]"
Cc1ccc(NC(=O)c2nc(S(=O)(=O)Cc3ccc(F)cc3)ncc2Cl)cc1C,,active: 2.82 µM
Cn1nc(C(F)(F)F)c2cc(C(=O)Nc3ccc(C(F)(F)F)cc3)sc21,inactive: 5.59% [at 57.1 µM],
COc1cc(CNC(=O)c2ccc(NC(=O)N3CCCCc4ccccc43)cc2)cc(OC)c1OC,inactive: 0.231% [at 57.1 µM],
O=C(O)c1ccc(COc2c(F)c(F)c(F)c(F)c2F)o1,,"inconclusive: 17.8 µM [inhibitor, full curve]"
COc1cc2c(NC3CCN(C(C)C)CC3)nc(N3CCCN(C)CC3)nc2cc1OCCOCCN(C)C,,"inconclusive: 79.4 µM [inhibitor, single point]"
CCOc1ccc(CNS(=O)(=O)c2ccc3c(c2)CC(C)N3C(C)=O)cc1OC (stereo not drawn),inactive: 1.44%,
Cc1nc(-c2ccccc2)sc1C(=O)O,inactive: -2.85%,
O=C(O)c1ccc(-c2nc3ccccc3s2)o1,,"inconclusive: 3.16 µM [inhibitor, full curve, poor fit]"
CC1N(C)c2cc(NC(=O)c3ccco3)ccc2C1(C)C (stereo not drawn),,"inconclusive: 20 µM [inhibitor, partial curve]"
O=C1/C(=C\c2ccc([N+](=O)[O-])cc2)CCc2ccccc21,inactive: 28.1%,
Cc1cc2c(cc(C(=O)NCCCN3CCOCC3)n2Cc2ccc(Cl)cc2)o1,,"inconclusive: 15.8 µM [inhibitor, partial curve]"
Cc1ccccc1N=Nc1c(C)[nH]n(C(N)=S)c1=O,,"inconclusive: 8.91 µM [inhibitor, partial curve, poor fit]"
NC(=O)c1c(NC(NC(=O)c2ccco2)(C(F)(F)F)C(F)(F)F)sc2c1CCCC2,,"inconclusive: 70.8 µM [inhibitor, single point]"
CCc1nnc(NS(=O)(=O)c2ccc(NC(=O)c3cccc4ccccc34)cc2)s1,,"inconclusive: 89.1 µM [inhibitor, partial curve, poor fit]"
CN1CCN(C(=S)c2cn(CCOc3ccccc3)c3ccccc23)CC1,inactive: 0.2%,

SMILES,"activity change, negative = inhibition",Potency
COc1ccc(C2NC(=S)NC(O)(C(F)(F)F)C2C(=O)c2cccs2)cc1 (stereo not drawn),,"inconclusive: 89.1 µM [inhibitor, single point]"
O=C(Cc1cccc(F)c1)N1CCOCC1,inactive: 12.6%,
NS(=O)(=O)c1ccc(CNS(=O)(=O)c2cc(C(=O)O)ccc2Cl)cc1,inactive: 14.6%,
CN1C[C@@H]2C[C@@H](c3ccc(C#CC(C)(C)O)s3)N3CCC[C@@]23C1=O,,"inconclusive: 89.1 µM [inhibitor, single point]"
O=C1c2ccccc2C(=O)N1Cc1cc(-c2ccccc2)no1,,"inconclusive: 3.98 µM [inhibitor, single point]"
CCc1ccc(CNC(=O)c2ccc(-c3nc(CSc4ccc(C)cc4)c(C)o3)cc2)cc1,,"inconclusive: 39.8 µM [inhibitor, single point]"
CC(C)(C)c1ccc(-c2nnc(SC3CCOC3=O)n2Cc2ccccc2)cc1 (stereo not drawn),,"inconclusive: 12.6 µM [inhibitor, partial curve, poor fit]"
CCOC(=O)N1C(=O)[C@](c2ccc(Cl)cc2)(C(C)C)N1C(=O)OCC,,active: 44.7 µM
O=[N+]([O-])c1ccccc1S(=O)(=O)NCc1ccccn1,inactive: 13.5%,
COc1cccc(-c2csc(N3CCN(C(=S)Nc4ccccc4)CC3)n2)c1,inactive: 6.34%,
COc1ccccc1NC(=O)CCS(=O)(=O)c1ccc2c(c1)oc(=O)n2C,,"inconclusive: 89.1 µM [inhibitor, partial curve, poor fit]"
CC1CCCCC1NC(=O)NC(=O)CCl (stereo not drawn),,active: 39.8 µM
NC1(C(=O)O)CC1,,"inconclusive: 42.3 µM [inhibitor, partial curve, poor fit]"
O=C(Cn1c[n+](CC(=O)c2ccc([N+](=O)[O-])cc2)cn1)c1ccc([N+](=O)[O-])cc1,,"inconclusive: 17.8 µM [inhibitor, full curve]"
Cc1cc(C)c(OCC(=O)N2CCN(c3ncc(C(F)(F)F)cc3Cl)CC2)c(C)c1,inactive: -5.34%,
CCOC(=O)Cn1cc(/C=C/[N+](=O)[O-])c2ccccc21,,"inconclusive: 79.4 µM [inhibitor, single point]"
COc1ccc(C)cc1NC(=O)CCCN1C(=S)NC(C)(C)CC1C (stereo not drawn),,"inconclusive: 89.1 µM [inhibitor, single point]"
COc1ccc(-c2csc3ncnc(N4CCN(C(=O)c5ccco5)CC4)c23)cc1,,active: 56.2 µM
CC(C)(C)c1ccc(/C=C2\Oc3c(ccc(O)c3CN3CCN(CCO)CC3)C2=O)cc1,,"inconclusive: 44.7 µM [inhibitor, partial curve]"
CCN(CC)c1ccc(/C=C/c2ccccn2)cc1,,"inconclusive: 79.4 µM [inhibitor, partial curve]"
Cc1c(CC(=O)N2CCN(C(=O)C3COc4ccccc4O3)CC2)c(=O)oc2cc(O)cc(O)c12 (stereo not drawn),inactive: -26.3%,
CC(=O)c1ccc(OC(=O)CCc2nc3ccccc3s2)cc1,,"inconclusive: 17.8 µM [inhibitor, partial curve]"
CC(C)(C)C1(C)OC(=O)C(=Cc2ccc(OCC(=O)Nc3ccccc3)cc2)C(=O)O1 (stereo not drawn),,"inconclusive: 70.8 µM [inhibitor, partial curve]"
